The source of these data is PMC7817014.

Common to all, as to test: co-IP; HEK293T cells co-transfected for 24 h, lysed in RIPA buffer; immunoprecipitation with mouse monoclonal antibodies to HA, MYC or GFP and protein A-agarose beads; immunoblot with rabbit polyclonal antibodies to HA, MYC or GFP
For orientation: In western blotting, separated proteins are transferred to a membrane and probed.

Assay [1] concerns the target T1, GFP-tagged DNAH11 N-terminus fragment 1001-1700 aa (mouse) (UniProt E9Q7N9).
T1 sequence: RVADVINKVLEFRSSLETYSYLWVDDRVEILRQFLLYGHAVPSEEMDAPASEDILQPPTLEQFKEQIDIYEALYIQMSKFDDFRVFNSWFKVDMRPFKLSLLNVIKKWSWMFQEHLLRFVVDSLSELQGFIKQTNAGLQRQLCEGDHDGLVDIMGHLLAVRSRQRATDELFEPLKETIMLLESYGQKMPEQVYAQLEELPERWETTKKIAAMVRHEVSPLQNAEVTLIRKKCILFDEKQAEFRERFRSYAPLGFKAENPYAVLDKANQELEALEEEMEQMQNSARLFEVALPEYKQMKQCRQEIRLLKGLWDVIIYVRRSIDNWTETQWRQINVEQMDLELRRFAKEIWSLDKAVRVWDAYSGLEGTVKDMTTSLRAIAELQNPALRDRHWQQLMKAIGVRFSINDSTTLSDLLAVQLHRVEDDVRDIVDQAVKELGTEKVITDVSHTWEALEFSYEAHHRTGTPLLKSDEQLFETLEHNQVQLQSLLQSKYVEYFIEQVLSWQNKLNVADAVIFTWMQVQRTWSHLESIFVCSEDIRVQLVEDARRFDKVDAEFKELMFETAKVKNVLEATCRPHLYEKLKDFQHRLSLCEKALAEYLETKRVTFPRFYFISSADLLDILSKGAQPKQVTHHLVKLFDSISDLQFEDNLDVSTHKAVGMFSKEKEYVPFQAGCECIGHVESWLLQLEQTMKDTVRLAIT

Assay [2] concerns the target T2, MYC epitope-tagged DNAIC2 (mouse) (UniProt A2AC93).
T2 sequence: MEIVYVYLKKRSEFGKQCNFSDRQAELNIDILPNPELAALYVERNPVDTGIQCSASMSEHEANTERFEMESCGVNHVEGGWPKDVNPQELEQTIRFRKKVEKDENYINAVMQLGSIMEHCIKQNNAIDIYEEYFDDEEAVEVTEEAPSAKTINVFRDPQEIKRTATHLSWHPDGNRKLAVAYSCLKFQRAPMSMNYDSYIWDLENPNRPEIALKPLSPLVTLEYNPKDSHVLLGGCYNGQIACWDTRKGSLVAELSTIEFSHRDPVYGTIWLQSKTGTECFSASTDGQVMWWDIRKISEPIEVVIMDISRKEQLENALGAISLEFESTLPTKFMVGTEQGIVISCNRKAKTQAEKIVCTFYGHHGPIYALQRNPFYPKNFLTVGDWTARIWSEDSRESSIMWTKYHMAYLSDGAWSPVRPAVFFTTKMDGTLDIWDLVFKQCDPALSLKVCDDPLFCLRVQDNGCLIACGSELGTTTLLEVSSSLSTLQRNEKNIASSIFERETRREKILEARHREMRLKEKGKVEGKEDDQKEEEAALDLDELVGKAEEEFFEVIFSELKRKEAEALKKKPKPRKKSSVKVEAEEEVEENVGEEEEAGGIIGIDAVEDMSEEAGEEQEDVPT

Assay [3] addresses T3, MYC epitope-tagged TTC25 (mouse) (UniProt Q9D4B2).
T3 sequence: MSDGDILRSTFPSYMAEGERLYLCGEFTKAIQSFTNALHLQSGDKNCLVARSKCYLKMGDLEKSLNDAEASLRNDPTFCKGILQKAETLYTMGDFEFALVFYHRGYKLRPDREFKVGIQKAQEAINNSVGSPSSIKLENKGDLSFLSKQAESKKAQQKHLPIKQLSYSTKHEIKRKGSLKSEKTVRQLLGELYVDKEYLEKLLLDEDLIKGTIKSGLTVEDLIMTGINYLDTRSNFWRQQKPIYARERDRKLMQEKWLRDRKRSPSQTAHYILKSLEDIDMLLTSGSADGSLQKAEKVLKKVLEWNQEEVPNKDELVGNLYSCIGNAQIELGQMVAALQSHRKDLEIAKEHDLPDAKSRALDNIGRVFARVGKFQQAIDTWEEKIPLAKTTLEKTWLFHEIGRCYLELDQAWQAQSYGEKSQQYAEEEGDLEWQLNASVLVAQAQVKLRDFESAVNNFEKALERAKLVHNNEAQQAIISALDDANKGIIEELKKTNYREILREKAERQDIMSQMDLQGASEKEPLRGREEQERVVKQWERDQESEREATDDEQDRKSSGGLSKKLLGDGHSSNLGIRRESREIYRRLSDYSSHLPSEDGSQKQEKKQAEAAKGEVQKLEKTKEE

For assay [4], the target named is T4, MYC epitope-tagged CCDC151 (mouse) (UniProt Q8BSN3).
T4 sequence: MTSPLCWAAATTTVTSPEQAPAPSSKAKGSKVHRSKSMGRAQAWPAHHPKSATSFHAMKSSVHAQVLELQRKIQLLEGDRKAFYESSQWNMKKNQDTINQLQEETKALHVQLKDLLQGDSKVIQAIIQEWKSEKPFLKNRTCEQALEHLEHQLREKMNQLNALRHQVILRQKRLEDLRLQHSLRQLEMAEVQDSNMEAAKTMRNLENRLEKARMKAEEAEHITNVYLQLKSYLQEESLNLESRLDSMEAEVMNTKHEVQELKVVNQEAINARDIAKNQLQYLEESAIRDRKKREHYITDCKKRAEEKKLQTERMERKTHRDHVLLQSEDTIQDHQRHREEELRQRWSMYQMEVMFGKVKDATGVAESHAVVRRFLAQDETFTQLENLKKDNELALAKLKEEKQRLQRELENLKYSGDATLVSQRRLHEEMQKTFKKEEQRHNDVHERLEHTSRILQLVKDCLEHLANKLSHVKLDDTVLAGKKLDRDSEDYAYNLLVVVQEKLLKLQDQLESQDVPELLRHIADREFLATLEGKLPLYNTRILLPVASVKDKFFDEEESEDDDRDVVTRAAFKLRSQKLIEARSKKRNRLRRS

The target in assay [5] is T5, GFP-tagged DNAH11 N-terminus fragment 1-1000 aa (mouse) (UniProt E9Q7N9).
T5 sequence: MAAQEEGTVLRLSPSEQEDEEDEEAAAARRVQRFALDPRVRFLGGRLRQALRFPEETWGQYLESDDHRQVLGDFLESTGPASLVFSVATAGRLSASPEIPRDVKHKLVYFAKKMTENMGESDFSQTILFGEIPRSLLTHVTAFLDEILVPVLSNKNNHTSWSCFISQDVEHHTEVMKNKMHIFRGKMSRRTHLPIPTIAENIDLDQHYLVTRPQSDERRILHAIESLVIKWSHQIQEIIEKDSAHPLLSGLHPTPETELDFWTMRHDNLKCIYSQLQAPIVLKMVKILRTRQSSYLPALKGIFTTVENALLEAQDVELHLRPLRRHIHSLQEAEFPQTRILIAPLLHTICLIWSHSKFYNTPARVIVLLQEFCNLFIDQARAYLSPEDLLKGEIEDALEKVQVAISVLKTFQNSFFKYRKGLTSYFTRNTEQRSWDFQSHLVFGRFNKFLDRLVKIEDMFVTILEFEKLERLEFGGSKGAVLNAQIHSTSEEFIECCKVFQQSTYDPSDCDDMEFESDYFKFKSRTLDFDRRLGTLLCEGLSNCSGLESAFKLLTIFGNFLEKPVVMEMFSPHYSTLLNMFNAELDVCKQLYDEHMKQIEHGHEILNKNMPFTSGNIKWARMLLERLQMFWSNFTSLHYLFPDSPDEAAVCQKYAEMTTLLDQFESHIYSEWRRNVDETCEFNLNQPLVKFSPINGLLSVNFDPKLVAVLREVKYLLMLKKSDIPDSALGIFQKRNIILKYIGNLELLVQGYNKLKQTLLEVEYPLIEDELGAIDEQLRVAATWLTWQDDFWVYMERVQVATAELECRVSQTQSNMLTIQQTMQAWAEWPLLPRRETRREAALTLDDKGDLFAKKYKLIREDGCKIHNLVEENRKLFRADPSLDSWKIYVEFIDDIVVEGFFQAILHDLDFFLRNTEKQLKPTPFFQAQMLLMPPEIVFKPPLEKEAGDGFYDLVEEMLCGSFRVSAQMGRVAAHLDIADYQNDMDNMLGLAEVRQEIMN

For assay [6], the target named is T6, MYC epitope-tagged DNAIC1 (mouse) (UniProt Q8C0M8).
T6 sequence: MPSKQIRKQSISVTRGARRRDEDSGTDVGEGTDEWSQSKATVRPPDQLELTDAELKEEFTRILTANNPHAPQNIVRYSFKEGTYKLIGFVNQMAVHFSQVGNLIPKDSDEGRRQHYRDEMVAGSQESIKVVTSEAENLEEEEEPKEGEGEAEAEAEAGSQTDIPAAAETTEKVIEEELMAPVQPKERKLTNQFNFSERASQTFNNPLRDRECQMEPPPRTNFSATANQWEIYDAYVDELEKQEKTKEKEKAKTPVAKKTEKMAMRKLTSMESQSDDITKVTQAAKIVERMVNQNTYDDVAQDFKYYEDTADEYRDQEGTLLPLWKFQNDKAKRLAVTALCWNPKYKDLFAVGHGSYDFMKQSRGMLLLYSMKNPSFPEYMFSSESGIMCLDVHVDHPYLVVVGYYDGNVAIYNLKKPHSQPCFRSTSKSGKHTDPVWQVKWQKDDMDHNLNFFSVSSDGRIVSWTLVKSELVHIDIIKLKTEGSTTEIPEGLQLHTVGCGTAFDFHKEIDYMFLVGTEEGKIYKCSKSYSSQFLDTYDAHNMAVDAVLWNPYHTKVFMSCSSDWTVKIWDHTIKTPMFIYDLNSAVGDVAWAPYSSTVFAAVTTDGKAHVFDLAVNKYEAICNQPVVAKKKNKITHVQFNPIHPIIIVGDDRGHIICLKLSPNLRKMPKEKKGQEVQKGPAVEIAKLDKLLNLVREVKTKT

Results are given in words; binding and its absence hold for the method and conditions named. In cells and extracts the contact can be indirect. Some results given as binding are weak or reduced against the parent protein; the word gives no strength. Tags and fused reporters may be left off the sequences shown.

B1: HA-tagged CFAP53 (protein, UniProt Q9D439 1-514)
chain: MYSQQFGTVPREFKGPTPKAVIIRAKPPKAQRAEQHLKRIQRSYHKYHTTLASIKSNEENRLKCDWIQRNNHKTFDSLVQARVQDAMQGFVINTEERRNKLRELLASEENEYFSEMQLKGETIEEKKDKMRERTKLLREKKEKERQEFVAEKLDQQFRERCEELRTKLASIHEKKVVEERNAQIEFNKELKRQKLVEEHLFARLWEEDRLAKERREAQEEKRQRELVQNTRLGLDAQVTSIQAQRQGARRMKEEEARILEQNKAQIKREDEQEKLQKQKRRQETRSSLKKAVQDKIESMQREYREDLDLNMKLVGRALQDLQDEADKKKQKREEMGREQKIYNDYLMQRREEEKAQEKELNRLLEDIKAKKLAEKDRELALQRAARKQLMNEVMNTRKLQVQERLQRKLREQEELALHEQRISESLKVLHQEDMEDFARRCALAEEYRNQLQMQIAHQQQAREAEKEEERQEFEAGLAANKACLDKIQRILSENQALSQNVHPMRRGYPDKPPL
For the molecule B1, the binding result in assay [1] is “binds”; in assay [2], “binds”; in assay [3] it was “binds”; in assay [4], “no binding”; in assay [5] it was “binds”; in assay [6] it was “binds”.
